Measured values as given in the supplement of paper PMC10126150.
Values marked as one replicate rest on one cluster of the flow cell; about a third of the high ones do not repeat.
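Also: ATP exposure 15 min at 22 °C before imaging.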

These sequences were tested on ATP (assay: switch fluorescence ratio, 500 uM ATP over buffer (Cy3 cluster intensity, sum of 5 cycles each) (fold (ratio)); higher = stronger signal-on switching upon ATP binding; sequences stand for … in TCGTCGGCAGCGTCAGATGTGTATAAGAGACAGTTTTTTTTTTTTTTTTTTTTTTTTT…TC). Conditions: aptamer strand: ATP DNA aptamer (quencher-CACCTGGGGGAGTATTGCGGAGGAAGG + anchor), 100 nM annealed; ATP concentration: 500 uM; one replicate.
In short: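 Five buffer/ATP imaging cycles were run on Cy3-labelled switching-strand clusters on a modified Illumina MiSeq flow-cell, with NaOH stripping and re-annealing between cycles. In each cycle, clusters annealed to 100 nM quencher-labelled ATP aptamer were imaged in selection buffer, then after 15 min with 500 uM ATP at 22 °C. Per cluster, the fluorescence ratio is summed target-cycle over summed buffer-cycle Cy3 intensity, averaged per switch-domain sequence. Only clusters within 100-1000 RFU were kept.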
Sequence AACGGGAGCG has a switch fluorescence ratio of 0.941.
In the case of AACGTAAGGT, the switch fluorescence ratio is reported as 1.04.
Sequence AACGTAGGTC has a switch fluorescence ratio of 1.1.
For AACGTATAGA, the switch fluorescence ratio was 1.07.
AACGTTGAAA gave a switch fluorescence ratio of 1.03.
Work on AACTAACCCG yielded a switch fluorescence ratio of 1.1.
AACTAAGCGG was tested, and the switch fluorescence ratio was 0.988.
Sequence AACTACGGAT has a switch fluorescence ratio of 1.08.
Sequence AACTAGGTCT has a switch fluorescence ratio of 0.997.
In the case of AACTATATTT, the switch fluorescence ratio is reported as 1.05.
In the case of AACTATTCTG, the switch fluorescence ratio is reported as 0.996.
AACTCACACA was tested, and the switch fluorescence ratio was 1.2.
With AACTCAGGTT the switch fluorescence ratio was 1.01.
Work on AACTCCAACG yielded a switch fluorescence ratio of 1.13.
For AACTCCTCTT, the switch fluorescence ratio was 1.42.
AACTCTCGAC gave a switch fluorescence ratio of 1.05.
Work on AACTGAGGG yielded a switch fluorescence ratio of 1.
AACTGATAGA showed a switch fluorescence ratio of 1.
AACTGCATGT was tested, and the switch fluorescence ratio was 1.02.
For AACTGGTCCC, the switch fluorescence ratio was 1.03.
Work on AACTGTCCTA yielded a switch fluorescence ratio of 1.03.
For AACTGTTATG, the switch fluorescence ratio was 1.02.
AACTTAGGAG was tested, and the switch fluorescence ratio was 1.01.
Sequence AACTTCAAGA has a switch fluorescence ratio of 1.02.
Work on AACTTCCACC yielded a switch fluorescence ratio of 1.65.
With AACTTCCGTC the switch fluorescence ratio was 1.26.
AACTTCTATA showed a switch fluorescence ratio of 1.03.
AACTTCTC was tested, and the switch fluorescence ratio was 1.15.
AACTTCTGTA showed a switch fluorescence ratio of 1.01.
Sequence AACTTGACTA has a switch fluorescence ratio of 1.04.
With AACTTGCGAG the switch fluorescence ratio was 1.
With AACTTTAAA the switch fluorescence ratio was 1.
In the case of AACTTTGCTT, the switch fluorescence ratio is reported as 0.984.
AAGAAAAGAC showed a switch fluorescence ratio of 1.02.
AAGAAAATGG was tested, and the switch fluorescence ratio was 0.973.
AAGAAAGGCG showed a switch fluorescence ratio of 1.02.
AAGAACCGAG gave a switch fluorescence ratio of 1.31.
In the case of AAGAACTTAT, the switch fluorescence ratio is reported as 1.01.
AAGAAGCTAG showed a switch fluorescence ratio of 1.07.
In the case of AAGAATAGTC, the switch fluorescence ratio is reported as 0.931.
With AAGAATCAAG the switch fluorescence ratio was 0.994.
AAGAATCGAG was tested, and the switch fluorescence ratio was 0.995.
For AAGAATCGGT, the switch fluorescence ratio was 1.02.
AAGAATTAAG showed a switch fluorescence ratio of 1.01.
Work on AAGAATTACC yielded a switch fluorescence ratio of 1.05.
AAGAATTGGA gave a switch fluorescence ratio of 0.994.
AAGACCACAG was tested, and the switch fluorescence ratio was 1.17.
For AAGACCCTTC, the switch fluorescence ratio was 1.06.
AAGACCTCGT gave a switch fluorescence ratio of 1.02.
In the case of AAGACGAAAG, the switch fluorescence ratio is reported as 1.02.
With AAGACTAAAC the switch fluorescence ratio was 1.03.
For AAGACTTGG, the switch fluorescence ratio was 1.04.
Sequence AAGAGAAAGC has a switch fluorescence ratio of 1.02.
AAGAGACAAT gave a switch fluorescence ratio of 1.
Work on AAGAGCACCA yielded a switch fluorescence ratio of 1.01.
AAGAGCACGG was tested, and the switch fluorescence ratio was 1.01.
In the case of AAGAGCACTG, the switch fluorescence ratio is reported as 1.05.
AAGAGCCAAC showed a switch fluorescence ratio of 1.
In the case of AAGAGCTAAT, the switch fluorescence ratio is reported as 0.977.
In the case of AAGAGGCTGC, the switch fluorescence ratio is reported as 0.982.
AAGAGGGACA showed a switch fluorescence ratio of 1.04.
For AAGAGGGTCA, the switch fluorescence ratio was 1.
With AAGAGGTCCA the switch fluorescence ratio was 0.972.
Work on AAGAGGTGAT yielded a switch fluorescence ratio of 1.03.
For AAGATAGGAG, the switch fluorescence ratio was 0.968.
AAGATCAAGT gave a switch fluorescence ratio of 1.03.
In the case of AAGATCCGAA, the switch fluorescence ratio is reported as 1.02.
AAGATCGTGC was tested, and the switch fluorescence ratio was 0.988.
Work on AAGATGATTC yielded a switch fluorescence ratio of 0.991.
For AAGATGCGGT, the switch fluorescence ratio was 0.999.
With AAGATGGCTG the switch fluorescence ratio was 0.902.
AAGATGGTTG gave a switch fluorescence ratio of 0.957.
In the case of AAGCACATAT, the switch fluorescence ratio is reported as 1.46.
AAGCACATCA gave a switch fluorescence ratio of 1.2.
For AAGCACGGTG, the switch fluorescence ratio was 1.07.
Work on AAGCAGGAAA yielded a switch fluorescence ratio of 1.02.
Work on AAGCAGGCCT yielded a switch fluorescence ratio of 0.948.
Sequence AAGCAGGTTC has a switch fluorescence ratio of 1.02.
Sequence AAGCATACC has a switch fluorescence ratio of 1.53.
AAGCATAGGC gave a switch fluorescence ratio of 1.12.
AAGCATGTAC was tested, and the switch fluorescence ratio was 4.01.
AAGCCAAGAT gave a switch fluorescence ratio of 1.
For AAGCCACCCG, the switch fluorescence ratio was 1.1.
Work on AAGCCACCTC yielded a switch fluorescence ratio of 1.16.
For AAGCCGCAAA, the switch fluorescence ratio was 1.87.
AAGCCGTAG gave a switch fluorescence ratio of 1.01.
AAGCCTACGA showed a switch fluorescence ratio of 1.06.
With AAGCCTACTC the switch fluorescence ratio was 1.22.
Sequence AAGCCTAGGT has a switch fluorescence ratio of 1.02.
AAGCCTATAC was tested, and the switch fluorescence ratio was 4.48.
Sequence AAGCCTGACT has a switch fluorescence ratio of 1.34.
AAGCCTTGAA gave a switch fluorescence ratio of 1.02.
For AAGCCTTGGA, the switch fluorescence ratio was 0.994.
For AAGCCTTTTC, the switch fluorescence ratio was 1.06.
In the case of AAGCGCGGTC, the switch fluorescence ratio is reported as 1.06.
Sequence AAGCGGGGA has a switch fluorescence ratio of 1.02.
AAGCGGTTAT was tested, and the switch fluorescence ratio was 0.968.
AAGCGGTTGT was tested, and the switch fluorescence ratio was 0.989.
Sequence AAGCGTGAAA has a switch fluorescence ratio of 1.06.
AAGCGTTCGA gave a switch fluorescence ratio of 1.04.
For AAGCTAGGAT, the switch fluorescence ratio was 0.982.
With AAGCTCCAGC the switch fluorescence ratio was 1.02.
Work on AAGCTCGACC yielded a switch fluorescence ratio of 1.07.
For AAGCTCTGC, the switch fluorescence ratio was 0.966.
With AAGCTGCTAT the switch fluorescence ratio was 0.976.
In the case of AAGCTGTCTT, the switch fluorescence ratio is reported as 1.02.
With AAGCTGTGGG the switch fluorescence ratio was 0.973.
Work on AAGCTTACTG yielded a switch fluorescence ratio of 1.07.
With AAGCTTCATC the switch fluorescence ratio was 1.56.
AAGCTTGTG gave a switch fluorescence ratio of 0.99.
For AAGGAAACGA, the switch fluorescence ratio was 1.06.
Work on AAGGAAACTA yielded a switch fluorescence ratio of 1.02.
With AAGGAAGCGC the switch fluorescence ratio was 0.996.
With AAGGACGACA the switch fluorescence ratio was 1.16.
Sequence AAGGAGGTGA has a switch fluorescence ratio of 0.993.
With AAGGAGTCA the switch fluorescence ratio was 1.03.
With AAGGAGTTAG the switch fluorescence ratio was 1.02.
Sequence AAGGATATTC has a switch fluorescence ratio of 0.965.
In the case of AAGGATGATA, the switch fluorescence ratio is reported as 1.02.
AAGGATGCTT was tested, and the switch fluorescence ratio was 1.04.
Work on AAGGATTCAT yielded a switch fluorescence ratio of 0.992.
With AAGGCATTTA the switch fluorescence ratio was 0.981.
Work on AAGGCCAAGA yielded a switch fluorescence ratio of 1.
In the case of AAGGCCAGTT, the switch fluorescence ratio is reported as 1.
AAGGCCATTG gave a switch fluorescence ratio of 1.03.
With AAGGCGCCGT the switch fluorescence ratio was 1.04.
AAGGCGGTGG was tested, and the switch fluorescence ratio was 0.971.
AAGGCTAATC showed a switch fluorescence ratio of 0.987.
For AAGGCTCCTG, the switch fluorescence ratio was 1.02.
AAGGCTCTAA showed a switch fluorescence ratio of 1.01.
For AAGGGAAATA, the switch fluorescence ratio was 0.985.
AAGGGAGGCA gave a switch fluorescence ratio of 0.977.
AAGGGATAAG gave a switch fluorescence ratio of 0.976.
AAGGGCAGCA was tested, and the switch fluorescence ratio was 0.983.
With AAGGGCATCG the switch fluorescence ratio was 0.999.
Sequence AAGGGCTGAC has a switch fluorescence ratio of 1.09.
AAGGGGAAAT gave a switch fluorescence ratio of 1.05.
Sequence AAGGGTGTAG has a switch fluorescence ratio of 1.07.
AAGGGTTGGA was tested, and the switch fluorescence ratio was 0.962.
In the case of AAGGTATTCG, the switch fluorescence ratio is reported as 1.02.
With AAGGTCACAT the switch fluorescence ratio was 1.03.
With AAGGTCATGA the switch fluorescence ratio was 0.977.
Sequence AAGGTCGTTA has a switch fluorescence ratio of 0.992.
In the case of AAGGTGCGTC, the switch fluorescence ratio is reported as 1.06.
With AAGGTTAAAG the switch fluorescence ratio was 1.01.
With AAGGTTGAGA the switch fluorescence ratio was 0.959.
For AAGGTTTC, the switch fluorescence ratio was 0.97.
AAGTAACCCA gave a switch fluorescence ratio of 1.05.
Sequence AAGTACACGA has a switch fluorescence ratio of 1.2.
For AAGTACATAA, the switch fluorescence ratio was 1.34.
In the case of AAGTACCGCA, the switch fluorescence ratio is reported as 1.33.
With AAGTACTTAA the switch fluorescence ratio was 1.01.
With AAGTAGGGAG the switch fluorescence ratio was 1.03.
AAGTATAGAA was tested, and the switch fluorescence ratio was 0.966.
Work on AAGTATATCT yielded a switch fluorescence ratio of 1.
In the case of AAGTATCTAA, the switch fluorescence ratio is reported as 0.999.
With AAGTATGGCA the switch fluorescence ratio was 1.03.
In the case of AAGTATGTGG, the switch fluorescence ratio is reported as 0.996.
AAGTATGTTT showed a switch fluorescence ratio of 0.997.
Sequence AAGTATTTCT has a switch fluorescence ratio of 1.04.
With AAGTCACCCC the switch fluorescence ratio was 1.19.
Sequence AAGTCATAGT has a switch fluorescence ratio of 0.995.
For AAGTCCTAAG, the switch fluorescence ratio was 0.99.
AAGTCCTCTT was tested, and the switch fluorescence ratio was 0.98.
With AAGTCGGGCG the switch fluorescence ratio was 1.04.
In the case of AAGTCTACCT, the switch fluorescence ratio is reported as 1.13.
AAGTCTAGCC showed a switch fluorescence ratio of 0.987.
AAGTCTCACG was tested, and the switch fluorescence ratio was 1.03.
With AAGTGAAG the switch fluorescence ratio was 1.02.
In the case of AAGTGAATTT, the switch fluorescence ratio is reported as 1.
Work on AAGTGAGGCG yielded a switch fluorescence ratio of 0.99.
For AAGTGAGTTC, the switch fluorescence ratio was 0.975.
AAGTGCGCCG showed a switch fluorescence ratio of 1.06.
In the case of AAGTGGCCTT, the switch fluorescence ratio is reported as 0.981.
Work on AAGTGTACCA yielded a switch fluorescence ratio of 1.04.
For AAGTGTAGTA, the switch fluorescence ratio was 1.02.
AAGTGTCCTT was tested, and the switch fluorescence ratio was 1.
AAGTGTCTGC was tested, and the switch fluorescence ratio was 0.975.
For AAGTGTTGGA, the switch fluorescence ratio was 1.03.
AAGTTAAACG gave a switch fluorescence ratio of 1.
Work on AAGTTAATAG yielded a switch fluorescence ratio of 1.
For AAGTTACAAT, the switch fluorescence ratio was 1.04.
Work on AAGTTATCGG yielded a switch fluorescence ratio of 1.01.
Work on AAGTTCAGAC yielded a switch fluorescence ratio of 1.02.
AAGTTCCTCG showed a switch fluorescence ratio of 1.22.
In the case of AAGTTCTGCT, the switch fluorescence ratio is reported as 0.97.
Sequence AAGTTCTTAT has a switch fluorescence ratio of 1.02.
Work on AAGTTGAGCA yielded a switch fluorescence ratio of 0.983.
In the case of AAGTTGGAAC, the switch fluorescence ratio is reported as 0.945.
AAGTTTACGG was tested, and the switch fluorescence ratio was 1.07.
AAGTTTCTGC showed a switch fluorescence ratio of 0.957.
AAGTTTTCAA showed a switch fluorescence ratio of 0.982.
AATAACTCTT was tested, and the switch fluorescence ratio was 1.03.
With AATAAGACTT the switch fluorescence ratio was 0.982.
AATAAGATAG gave a switch fluorescence ratio of 1.
In the case of AATAAGCATT, the switch fluorescence ratio is reported as 1.07.
Sequence AATAAGCGCG has a switch fluorescence ratio of 1.07.
For AATAAGGGCG, the switch fluorescence ratio was 0.951.
For AATAAGTAT, the switch fluorescence ratio was 0.981.
AATAAGTGCC gave a switch fluorescence ratio of 0.922.
